# Laboratory results reported in ChEMBL document CHEMBL4888484, “Replenishing the malaria drug discovery pipeline: Screening and hit evaluation of the MMV Hit Generation Library 1 (HGL1) against asexual blood stage Plasmodium falciparum ,using a nano luciferase reporter read-out” (2022).
# Hit rate of the full screen: of about 150,000 compounds, about 540 (0.36%) showed an effect of 50% or more. The list shows a part of the results.
# System: Plasmodium falciparum
# Experiment: Primary screen in NF54 nanoGlo assay, in single point, at 2uM, 72h; a lower Z score goes with more inhibition
# Type: functional, Erythrocyte
# Conditions: timepoint 72 hour
SMILES,% Inhibition [%],Z score
O=C(c1ccc(F)cc1F)N1CCC2(CC1)OC[C@@H](C(=O)N1CCCC1)N2C(=O)c1ccccc1,-2,0.22
C[C@](O)(CNC(=O)CC1CC1)c1cc2ccccc2s1,-21,2.67
CC[C@H](C)Oc1cccc2c1cc(C(=O)N1CCN(Cc3ccc4c(c3)OCO4)CC1)n2Cc1ccccc1,-12,1.41
CCN(Cc1noc(CC(C)C)n1)C(=O)c1cc(C)[nH]c(=O)c1,-9,1.39
FC(F)(F)Cn1nnnc1CN1CCCCC2CCCCC21 (stereo unspecified),-12,1.17
O=S(=O)(c1ccc(Cl)s1)N1CC[C@H](c2noc(C(F)(F)F)n2)C1,8,-1.36
CC(C)c1cccc(Cn2c(N)nc(C#N)c2C#N)n1,-8,0.77
COCCOC(=O)N1CCCC[C@H](NC(=O)c2ccoc2C)C1,2,-0.33
Cn1nncc1NC(=O)c1ccccc1OCC1CC1,3,-0.47
FC(F)(F)c1cccnc1N1CCC[C@H](C2OCCO2)C1,-15,2.26
COC(=O)[C@]1(C)CN(C(=O)c2cc(Cl)c(N)c(Cl)c2)C[C@H]1C,-3,0.39
O=C(O)Cc1cccc(C(=O)NC2(Cc3cccc(F)c3)CCC2)c1,-15,1.99
Clc1cccc(CN(CCCN2CCCCCC2)C2CCOCC2)c1,8,-1.31
CC(COC1CCCC1)CS(=O)(=O)N1CCC(C)C(n2ccnc2)C1 (stereo unspecified),-11,2.15
Cc1n[nH]c(-c2cc(S(=O)(=O)N[C@H]3CCCc4ccccc43)c(C)s2)c1C,13,-2.41
C[C@H]1CN(C(=O)c2ccc(-c3nc(C4CC4)no3)cc2)CCN1,-12,2.38
CC[C@](O)(C(=O)N1CC(NC(=O)COC)C1)c1cccc(Cl)c1,-11,1.58
CCc1nc(CC(=O)N2CCN(c3ccccn3)CC2)cs1,-10,1.29
COC(=O)Nc1nc(-c2ccccc2)c(-c2nccc(OCC(F)(F)F)c2C)s1,30,-3.82
CCOc1ccc(-c2ncnc(N3CCN(C)CC3)c2N)cc1,-10,1.27
Cc1nn(C)c(C)c1CCc1nc([C@H]2CCOC2)no1,-6,1.12
C[C@H](NCCCC(=O)N1CCc2ccccc2C1)c1cnccn1,-5,0.55
Cn1cc(-c2noc(C3CC4CCC3C4)n2)cn1 (stereo unspecified),-2,0.2
